Laboratory results: the supplement of paper PMC3334620
The full ranking holds about 33,000 sequences; the median of “E-score (-0.5 to 0.5)” is about -0.035, and the highest 2% start at about 0.35. Some of the results follow.

These sequences were tested against T1, Pdr3 (UniProt P33200) (assay: PBM E-score (8-mer binding enrichment) (E-score (-0.5 to 0.5)); higher = stronger / more preferred TF binding; most listed sequences are background and not binding sites). Settings: protein concentration: 200 nM; construct: GST-full length.
T1 sequence: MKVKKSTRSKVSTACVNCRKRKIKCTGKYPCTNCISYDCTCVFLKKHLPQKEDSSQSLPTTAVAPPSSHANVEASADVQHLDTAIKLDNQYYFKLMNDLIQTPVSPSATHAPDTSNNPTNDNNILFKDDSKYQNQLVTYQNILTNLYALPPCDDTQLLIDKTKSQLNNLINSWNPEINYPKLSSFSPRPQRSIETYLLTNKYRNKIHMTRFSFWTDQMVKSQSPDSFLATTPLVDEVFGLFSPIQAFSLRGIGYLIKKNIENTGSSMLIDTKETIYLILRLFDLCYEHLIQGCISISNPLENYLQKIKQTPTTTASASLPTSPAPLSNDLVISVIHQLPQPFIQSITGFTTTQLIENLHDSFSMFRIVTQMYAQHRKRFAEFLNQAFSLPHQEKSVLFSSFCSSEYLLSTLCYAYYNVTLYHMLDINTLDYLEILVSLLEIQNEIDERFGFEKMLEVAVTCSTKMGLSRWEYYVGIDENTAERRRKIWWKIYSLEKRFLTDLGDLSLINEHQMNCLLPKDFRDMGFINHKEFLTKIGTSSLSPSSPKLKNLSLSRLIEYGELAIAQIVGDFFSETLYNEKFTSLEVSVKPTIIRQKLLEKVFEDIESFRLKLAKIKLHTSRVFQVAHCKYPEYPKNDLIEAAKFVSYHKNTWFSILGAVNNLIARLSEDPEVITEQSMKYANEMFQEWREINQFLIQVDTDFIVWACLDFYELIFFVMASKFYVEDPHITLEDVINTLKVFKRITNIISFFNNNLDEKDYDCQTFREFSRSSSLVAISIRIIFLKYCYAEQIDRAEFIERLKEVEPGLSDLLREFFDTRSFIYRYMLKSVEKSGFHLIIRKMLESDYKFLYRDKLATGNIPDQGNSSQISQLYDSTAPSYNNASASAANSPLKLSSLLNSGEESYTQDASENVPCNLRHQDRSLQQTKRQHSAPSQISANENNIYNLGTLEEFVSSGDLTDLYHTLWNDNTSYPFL
Protocol: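 Universal 'all 10-mer' protein binding microarrays (Agilent AMADID 015681) probed with GST-tagged S. cerevisiae TFs (full-length or DBD) made by in vitro transcription/translation (PURExpress), about 100-200 nM. Bound TF was detected with fluorescent anti-GST. Each ungapped 8-mer (which stands for itself and its reverse complement) is scored by the PBM enrichment score (E-score), a modified Wilcoxon-Mann-Whitney statistic from -0.5 to +0.5, computed with the Universal PBM Analysis Suite. Scale: above 0.35 generally sequence-specific binding.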

Row | Sequence | PBM E-score
1 | GACAACCC | 0.0502
2 | AGCGGATG | 0.191
3 | ATACACGG | 0.0919
4 | TGATAGCA | -0.0286
5 | CTGTCCGC | 0.235
6 | AAATGATA | 0.0731
7 | ATGTAAAT | -0.122
8 | TCCGTTAA | 0.348
9 | CGGTTCCC | 0.153
10 | CTCCAGAC | -0.0921
11 | GGGACAAA | 0.0643
12 | TAGGTTAA | -0.0553
13 | CAACCGCC | 0.0754
14 | CTTATGTC | 0.0774
15 | CTATAGCC | -0.241
16 | CGGTGCAC | -0.0225
17 | ACTATTCA | -0.0803
18 | AAGCGCTT | 0.21
19 | CCGTATAC | 0.0588
20 | CCGAGACA | 0.185
21 | ATCCGGTG | 0.35
22 | CATGGCCC | 0.102
23 | CCGTGTCC | 0.356
24 | ACGTATCA | -0.068
25 | CCAGGTAA | -0.104

Row | Sequence | PBM E-score
26 | AACTAATA | 0.215
27 | CAGCGCCG | 0.256
28 | CCCCTTCG | -0.203
29 | GCACATAA | -0.2
30 | CCAGGTAC | -0.233
31 | AACCTGCC | -0.146
32 | CGGAGAAA | 0.308
33 | CAGCAGAC | -0.02
34 | TATGTGAA | -0.273
35 | GCCTAACC | -0.131
36 | CAAAGTCC | -0.0636
37 | TAGAGTAA | -0.0312
38 | AGATCAAG | -0.0561
39 | AAGGTTCG | -0.0878
40 | GTTGGCAA | -0.0457
41 | GAAGTAGC | 0.0381
42 | AACCACAT | -0.104
43 | GATGGGGA | 0.117
44 | GTGGCCAA | -0.0495
45 | GGCCTTTA | -0.123
46 | ACCTGCGT | -0.00471
47 | CGCATACG | 0.1
48 | CCTTAAGG | -0.0211
49 | ATCAGTCC | -0.145
50 | GGGTTGAA | -0.0149

Row | Sequence | PBM E-score
51 | CGCTAGGA | -0.0989
52 | CGAGTAGA | -0.0392
53 | ACAAAATC | 0.0149
54 | ACTTGATG | -0.02
55 | GGGAATCA | 0.0382
56 | CAAAGCCG | 0.00836
57 | TAAAGGCA | -0.0458
58 | ACAAAAGT | -0.0787
59 | AAGGGACG | -0.0816
60 | CTCGTCCC | 0.0112
61 | CTCCAGCC | -0.0126
62 | ATTATTTG | -0.0361
63 | ACCTTTCG | -0.037
64 | CTTCCCAA | -0.0991
65 | GATATAAC | 0.00998
66 | GTGGGGGA | -0.297
67 | ATCACCCG | 0.358
68 | CGATTGGC | 0.0251
69 | AAGTAAGC | -0.122
70 | CCGAGGTC | 0.331
71 | TCTCCTCA | -0.171
72 | GGAGTCTA | -0.145
73 | ATCCTTAA | -0.267
74 | GAGTCCGA | 0.236
75 | GCCTAAGA | -0.167

Row | Sequence | PBM E-score
76 | GTGACTAA | -0.0412
77 | ACCCACGA | -0.0144
78 | GAGGCTGA | -0.305
79 | ATATCTCA | 0.0784
80 | GGCGAGTA | 0.111
81 | TACGAGTA | -0.0197
82 | AATGGATG | -0.131
83 | ACAGGTAA | -0.15
84 | ACACAACA | -0.0742
85 | AATGTTTC | 0.0286
86 | TCCCGAAA | 0.206
87 | AATCGCCA | -0.135
88 | AGTGGTAT | -0.0212
89 | TCAAGGAA | -0.0766
90 | AAGAGTGC | -0.0877
91 | ACAAGTAT | 0.00509
92 | AATTTGGT | 0.113
93 | ATGCTCCG | 0.311
94 | ACCACCCA | -0.0389
95 | AGACTTAC | -0.264
96 | GTTCTGGA | -0.104
97 | TCACTTAA | -0.108
98 | ACCATTAG | -0.15
99 | GTAATACA | -0.115
100 | ATATTGAC | -0.0229

Row | Sequence | PBM E-score
101 | AAGCCCCT | -0.0507
102 | GTTGTCAA | -0.144
103 | GGAATACC | 0.27
104 | AGAAAACC | -0.101
105 | GCTATTAA | -0.0584
106 | CCCGGTCA | 0.216
107 | GCACATGA | -0.133
108 | CAAGCGGC | 0.171
109 | GACGCGGC | 0.0937
110 | ACTTGACA | -0.191
111 | CTCTTTAC | -0.141
112 | CGACGTTA | 0.134
113 | ACTACGGC | 0.0992
114 | GAGAGACC | -0.13
115 | ACGTCCGC | 0.216
116 | ACTCGAAA | -0.139
117 | TACATCTA | -0.0537
118 | ACAACCGT | -0.246
119 | ACATGGCC | 0.00729
120 | ACAACCTA | -0.095
121 | TTGACCAA | -0.0852
122 | ACGAGTCG | -0.192
123 | CGAAGGAG | -0.00322
124 | CGTAACAA | -0.11
125 | ATAAACTA | -0.063

Row | Sequence | PBM E-score
126 | ATTCTGTC | 0.0364
127 | ACATAGCT | -0.165
128 | GTCTCTGA | -0.141
129 | CGCTTTAA | -0.117
130 | AATGTCAC | -0.0552
131 | TTATAGAA | -0.191
132 | CGCCACAG | -0.103
133 | AGGCCCAA | -0.0932
134 | CCGAAATA | 0.295
135 | CCTGTTTC | -0.137
136 | ATTGAAAG | -0.0832
137 | AGCAGTCA | -0.175
138 | TGTAGGAA | -0.203
139 | ATGTCCTA | -0.116
140 | ACATCCCT | 0.0723
141 | AAATACCG | 0.111
142 | CACGTCCC | 0.00264
143 | AGGTTGAA | 0.0111
144 | AAGAGCTG | -0.182
145 | TATCGGGA | 0.228
146 | AGTTAGTG | -0.156
147 | AAATAGAT | 0.038
148 | TGCCAACA | -0.108
149 | AAACCGTG | -0.00106
150 | ACTTTTGG | 0.0191

Row | Sequence | PBM E-score
151 | TATCCATA | 0.0421
152 | CCTGCAGC | -0.0971
153 | CCGTTACA | 0.147
154 | GCCGCATA | 0.237
155 | ACTCAACG | -0.107
156 | ACTTAAGG | -0.16
157 | ACGGCGCT | 0.0913
158 | ATAGGTGG | -0.195
159 | ATTGACCC | -0.0163
160 | AACAAGGG | -0.0813
161 | ATATTTCA | -0.0857
162 | AAGATCTG | -0.023
163 | CTCCCAAA | -0.0924
164 | CGCATCAA | 0.136
165 | AAAATGGT | 0.0548
166 | AAACAAAC | -0.301
167 | GGCTCATA | -0.0875
168 | CATTCCGA | 0.421
169 | CTGATAGC | -0.114
170 | GGGGCCCA | 0.162
171 | CAAATCAG | -0.207
172 | TACGACGA | -0.0989
